Experimental data published in PubChem BioAssay (NCI).
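Exposure lasted 48 hours, with cells grown in 96-well plates and compounds tested at five concentrations. Abbreviation: GI50, concentration required for 50% inhibition of growth.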 A number of entries come with more than one value. The other results are left out here. The source may hold further records. The tests behind the records often covered other concentration ranges, which the source does not state; some values may only mark the edge of a range.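 TGI: concentration producing complete growth inhibition.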

Assays:
Test in all cases: DTP human tumour cell line panel, 48 h
HOP-62 NSCLC = system: HOP-62 NSCLC
COLO 205 colon = system: COLO 205 colon
BT-549 breast = system: BT-549 breast
MOLT-4 leukemia = system: MOLT-4 leukemia
HCT-116 colon = system: HCT-116 colon
EKVX NSCLC = system: EKVX NSCLC
NCI/ADR-RES ovarian = system: NCI/ADR-RES ovarian
786-0 renal = system: 786-0 renal
OVCAR-8 ovarian = system: OVCAR-8 ovarian
SNB-19 CNS = system: SNB-19 CNS
A498 renal = system: A498 renal
PC-3 prostate = system: PC-3 prostate
A549 NSCLC = system: A549 NSCLC
M14 melanoma = system: M14 melanoma
OVCAR-3 ovarian = system: OVCAR-3 ovarian
OVCAR-5 ovarian = system: OVCAR-5 ovarian
UACC-257 melanoma = system: UACC-257 melanoma
M19-MEL melanoma = system: M19-MEL melanoma
ACHN renal = system: ACHN renal
HCC-2998 colon = system: HCC-2998 colon
SK-OV-3 ovarian = system: SK-OV-3 ovarian
SN12C renal = system: SN12C renal
LXFL 529 NSCLC = system: LXFL 529 NSCLC
OVCAR-4 ovarian = system: OVCAR-4 ovarian
NCI-H460 lung = system: NCI-H460 lung
SW-620 colon = system: SW-620 colon
SK-MEL-5 melanoma = system: SK-MEL-5 melanoma
SNB-78 CNS = system: SNB-78 CNS
IGROV1 ovarian = system: IGROV1 ovarian
RXF 393 renal = system: RXF 393 renal
U251 CNS = system: U251 CNS
SF-268 CNS = system: SF-268 CNS
SR leukemia = system: SR leukemia
SF-539 CNS = system: SF-539 CNS
K-562 leukemia = system: K-562 leukemia
LOX IMVI melanoma = system: LOX IMVI melanoma
NCI-H23 lung = system: NCI-H23 lung
UACC-62 melanoma = system: UACC-62 melanoma
HT29 colon = system: HT29 colon
SK-MEL-28 melanoma = system: SK-MEL-28 melanoma
MALME-3M melanoma = system: MALME-3M melanoma
KM20L2 colon = system: KM20L2 colon
KM12 colon = system: KM12 colon
HOP-18 NSCLC = system: HOP-18 NSCLC
HL-60(TB) leukemia = system: HL-60(TB) leukemia
NCI-H522 lung = system: NCI-H522 lung
SNB-75 CNS = system: SNB-75 CNS
HOP-92 NSCLC = system: HOP-92 NSCLC
UO-31 renal = system: UO-31 renal
TK-10 renal = system: TK-10 renal
XF 498 CNS = system: XF 498 CNS
SF-295 CNS = system: SF-295 CNS
DLD-1 colon = system: DLD-1 colon
HS 578T breast = system: HS 578T breast
MDA-MB-231 breast = system: MDA-MB-231 breast
CCRF-CEM leukemia = system: CCRF-CEM leukemia
DU-145 prostate = system: DU-145 prostate
HCT-15 colon = system: HCT-15 colon
NCI-H226 lung = system: NCI-H226 lung

COc1ccc2c(c1)C(=O)c1c-2n(CCCN=[N+]=[N-])c(=O)c2cc([N+](=O)[O-])ccc12
GI50 (HOP-62 NSCLC): < 1 nM and 190 nM | TGI (HOP-62 NSCLC): 22.9 nM and 952 nM | GI50 (COLO 205 colon): 21.4 nM and 28.9 µM | GI50 (BT-549 breast): 1.83 µM and 32.8 nM | TGI (MOLT-4 leukemia): 12 nM and 350 nM | GI50 (HCT-116 colon): < 1 nM and 261 nM | GI50 (EKVX NSCLC): 362 nM and 19 µM | GI50 (NCI/ADR-RES ovarian): < 1 nM and 47 nM | GI50 (786-0 renal): < 1 nM and 255 nM | GI50 (OVCAR-8 ovarian): < 1 nM and 1.26 µM | GI50 (SNB-19 CNS): < 1 nM and 1.66 µM | TGI (SNB-19 CNS): 32.4 nM and > 100 µM | GI50 (A498 renal): 1.39 nM and 390 nM | TGI (A498 renal): 7.71 nM and 17.1 µM | GI50 (PC-3 prostate): 20.9 nM and 1.11 µM | GI50 (A549 NSCLC): < 1 nM and 1.09 µM | GI50 (M14 melanoma): < 1 nM and 261 nM | GI50 (OVCAR-3 ovarian): 155 nM and 15.2 µM | TGI (OVCAR-3 ovarian): 769 nM and 65.9 µM | GI50 (OVCAR-5 ovarian): < 1 nM and > 100 µM | GI50 (UACC-257 melanoma): 10.7 nM and 5.01 µM

C[N+]1(CCNP(=S)(NCC[N+]2(C)Cc3c(ccc4c3OCO4)C3C2c2cc4c(cc2C[C@@H]3O)OCO4)NCC[N+]2(C)Cc3c(ccc4c3OCO4)C3C2c2cc4c(cc2C[C@@H]3O)OCO4)Cc2c(ccc3c2OCO3)C2C1c1cc3c(cc1C[C@H]2O)OCO3 (stereo partly specified)
TGI (HOP-62 NSCLC): < 1.91 nM and 39.3 µM | TGI (M19-MEL melanoma): < 1.91 nM and 7.23 µM | TGI (COLO 205 colon): < 1.91 nM and 5.77 µM | TGI (ACHN renal): < 1.91 nM and 11.9 µM | TGI (HCC-2998 colon): < 1.91 nM and 20.1 µM | TGI (SK-OV-3 ovarian): < 1.91 nM and 26.2 µM | TGI (HCT-116 colon): < 1.91 nM and 5.41 µM | TGI (SN12C renal): < 1.91 nM and 10.5 µM | TGI (EKVX NSCLC): < 1.91 nM and 96.7 µM | TGI (LXFL 529 NSCLC): < 1.91 nM and 7.83 µM | TGI (OVCAR-4 ovarian): < 1.91 nM and 11.6 µM | TGI (786-0 renal): < 1.91 nM and 11.3 µM | TGI (NCI-H460 lung): < 1.91 nM and 2.61 µM | TGI (SW-620 colon): < 1.91 nM and 6.16 µM | TGI (SK-MEL-5 melanoma): < 1.91 nM and 6.58 µM | TGI (SNB-78 CNS): < 1.91 nM and 12.1 µM | TGI (IGROV1 ovarian): < 1.91 nM and 16.7 µM | TGI (RXF 393 renal): < 1.91 nM and 7.35 µM | TGI (U251 CNS): < 1.91 nM and 6.87 µM | TGI (SF-268 CNS): < 1.91 nM and > 383 µM | TGI (SR leukemia): < 1.91 nM and 28.9 µM | TGI (SF-539 CNS): < 1.91 nM and 8.99 µM | TGI (K-562 leukemia): < 1.91 nM and 18.5 µM | TGI (LOX IMVI melanoma): < 1.91 nM and 6.81 µM | TGI (NCI-H23 lung): < 1.91 nM and 7.63 µM | TGI (SNB-19 CNS): < 1.91 nM and 71.2 µM | TGI (UACC-62 melanoma): < 1.91 nM and 4.72 µM | TGI (HT29 colon): < 1.91 nM and 5.21 µM | TGI (A498 renal): < 1.91 nM and 22 µM | TGI (SK-MEL-28 melanoma): < 1.91 nM and 8.97 µM | TGI (MALME-3M melanoma): < 1.91 nM and 10.3 µM | TGI (KM20L2 colon): < 1.91 nM and 8.91 µM | TGI (KM12 colon): < 1.91 nM and 6.49 µM | TGI (A549 NSCLC): < 1.91 nM and 67.3 µM | TGI (HOP-18 NSCLC): < 1.91 nM and 94.4 µM | TGI (HL-60(TB) leukemia): < 1.91 nM and > 383 µM | TGI (NCI-H522 lung): < 1.91 nM and 16.1 µM | TGI (SNB-75 CNS): < 1.91 nM and 4.12 µM | TGI (OVCAR-3 ovarian): < 1.91 nM and 7.17 µM | TGI (HOP-92 NSCLC): < 1.91 nM and 13.7 µM | TGI (UO-31 renal): < 1.91 nM and 14.9 µM | TGI (TK-10 renal): < 1.91 nM and 23.7 µM | TGI (XF 498 CNS): < 1.91 nM and 3.57 µM | TGI (UACC-257 melanoma): < 1.91 nM and 9.33 µM | TGI (SF-295 CNS): < 1.91 nM and 39.9 µM | TGI (DLD-1 colon): < 1.91 nM and 7.95 µM

COC(=O)[C@@H](C)C[C@H](Cc1ccccc1)NC(=O)c1csc([C@@H](C[C@H](C(C)C)N(C)C(=O)[C@@H](NC(=O)[C@H]2CCCCN2C)c2ccc(F)cc2)OC(C)=O)n1
GI50 (HOP-62 NSCLC): 35.5 nM, 2.5 nM, 88.7 nM | GI50 (HS 578T breast): 35.9 nM and 567 nM | GI50 (BT-549 breast): 2.5 nM and 41.3 nM | GI50 (MOLT-4 leukemia): 35.1 nM, 2.5 nM, 129 nM | GI50 (MDA-MB-231 breast): 23.6 nM, 2.5 nM, 111 nM | TGI (MDA-MB-231 breast): 322 nM and 15.2 µM | GI50 (ACHN renal): 45.1 nM, 2.5 nM, 141 nM | GI50 (HCC-2998 colon): 25.6 nM, 2.5 nM, 1.8 µM | GI50 (SK-OV-3 ovarian): 48 nM, 2.5 nM, 154 nM | GI50 (HCT-116 colon): 21.7 nM, 2.5 nM, 38.8 nM | GI50 (SN12C renal): 40.7 nM, 2.5 nM, 127 nM | GI50 (EKVX NSCLC): 39.6 nM, 2.5 nM, 627 nM | GI50 (OVCAR-4 ovarian): 120 nM, 546 nM, 1.74 µM | GI50 (786-0 renal): 59.8 nM, 2.5 nM, 351 nM | GI50 (NCI-H460 lung): 22.5 nM, 2.5 nM, 51.6 nM | GI50 (SW-620 colon): 9.28 nM, 2.5 nM, 52.5 nM | GI50 (OVCAR-8 ovarian): 36.8 nM, 2.5 nM, 200 nM | TGI (SK-MEL-5 melanoma): 157 nM, 36.3 nM, 1.23 µM | GI50 (IGROV1 ovarian): 5.6 nM, 2.5 nM, 38.7 nM | GI50 (U251 CNS): 9.47 nM, 2.5 nM, 104 nM | GI50 (SF-268 CNS): 22.9 nM, 2.5 nM, 182 nM | GI50 (K-562 leukemia): 3.7 nM, 2.5 nM, 28.1 nM | GI50 (LOX IMVI melanoma): 18.2 nM, 2.5 nM, 52.7 nM | GI50 (NCI-H23 lung): 33.4 nM, 2.5 nM, 308 nM | GI50 (HT29 colon): 5.93 nM, 2.5 nM, 36.7 nM | TGI (HT29 colon): 3.07 µM and 35.5 µM | GI50 (SK-MEL-28 melanoma): 46.4 nM and 527 nM | GI50 (CCRF-CEM leukemia): 28.7 nM, 2.5 nM, 52.4 nM | GI50 (KM12 colon): 6.77 nM, 2.5 nM, 63.1 nM | GI50 (PC-3 prostate): 19.4 nM, 2.5 nM, 46.1 nM | GI50 (DU-145 prostate): 6.63 nM, 2.5 nM, 37.3 nM | TGI (DU-145 prostate): 3.57 µM and > 100 µM | GI50 (A549 NSCLC): 121 nM, 2.5 nM, 468 nM | GI50 (HCT-15 colon): 47 nM, 2.5 nM, 289 nM | GI50 (M14 melanoma): 14.4 nM, 2.5 nM, 49.3 nM | TGI (M14 melanoma): 75.4 nM, 1.35 µM, 937 nM | TGI (HL-60(TB) leukemia): 6.88 nM and 102 nM | TGI (NCI-H522 lung): 167 nM and 13 µM | GI50 (SNB-75 CNS): 12.5 nM, 2.5 nM, 37.3 nM | GI50 (OVCAR-5 ovarian): 101 nM, 2.5 nM, 654 nM | GI50 (HOP-92 NSCLC): 2.36 nM and 6.84 µM | TGI (HOP-92 NSCLC): 323 nM and 63.4 µM | GI50 (NCI-H226 lung): 389 nM, 38.3 nM, 18.7 µM | TGI (NCI-H226 lung): 8.44 µM and > 100 µM | GI50 (UO-31 renal): 343 nM, 2.5 nM, 530 nM | TGI (UO-31 renal): 7.65 µM and > 100 µM | GI50 (TK-10 renal): 62.9 nM and 30.3 µM | GI50 (UACC-257 melanoma): 262 nM and 35 µM | GI50 (SF-295 CNS): 23 nM, 2.5 nM, 135 nM
